Experimental data reported in PubChem BioAssay AID1745845 (National Center for Advancing Translational Sciences (NCATS), 2022).
“And” between values parts separate entries of the source, which are not always exact repeats. Equal entries are not always repeated. Among all 360,000 compounds or so, about 2,600 (0.72%) were called active. The shares of active, inactive and inconclusive entries below differ from those in the screen. The call rests on the fitted dose curve; in most records, active means well fitted inhibition curve with a large enough effect; inconclusive means small, poorly fitted or top-dose-only effect; inactive means no such curve, though single readings can be large or run the other way. Potencies of inconclusive entries are doubtful fits and often do not repeat.

Test: Primary qHTS for Inhibitors of ATXN expression; further: nearly all actives have a fitted effect of over 55% in size
Settings: HEK-293 ATXN2-luciferase reporter, luminescence, 24 h; activity change, negative = inhibition: at 57 µM (top of the series)
How it was run: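 qHTS (up to 57 uM final) was run with 24 h compound exposure of reporter cells at 37 °C. Each well was multiplexed: SteadyGlo luminescence measured ATXN2-luciferase expression after a fluorogenic Gly-Phe-AFC viability readout (25 uM final).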
On the % scale 0 is the no-effect control and ±100 the full control effect; potency means the concentration at half of the fitted maximal effect; tags describe the fitted curve by direction and shape.

Row | SMILES | Potency | activity change, negative = inhibition
1 | CCn1c(O)c(/C=N/NC(=O)c2ccccc2)c(=O)n(CC)c1=S | inconclusive: 31.6 µM [inhibitor, single point] | 
2 | COc1ccc(N=Cc2c(O)n(-c3ccc(C)cc3)c(=O)[nH]c2=O)cc1 | inconclusive: 28.2 µM [inhibitor, single point] | 
3 | CC(C)=CCN1CC[C@@]2(C)c3cc(O)ccc3C[C@@H]1[C@@H]2C | inconclusive: 25.1 µM [inhibitor, partial curve] | 
4 | Cc1ccc(-c2nc(N(C)C3CCN(C)CC3)c3ccccc3n2)cc1 | active: 20 µM | 
5 | O=C(c1ccc(Cl)cc1)C1CCCN(Cc2ccc3c(c2)OCCO3)C1 (stereo unspecified) |  | inconclusive: -48.8% [inhibitor]
6 | ClCCN(CCCl)c1ccc(C=NNc2ncccn2)cc1 | inconclusive: 25.1 µM [inhibitor, single point] | 
7 | COC(=O)C1=C(c2ccc(S(C)(=O)=O)cc2)C[C@@H]2CC[C@H]1N2C(=O)NCc1ccccc1 | inactive | 
8 | Cn1ncnc2c(=O)n(C)c(=O)nc1-2 | active: 3.55 µM | 
9 | COc1ccc(-n2nnnc2C(c2ccccc2)N2CCC(n3c(=O)[nH]c4ccccc43)CC2)cc1 (stereo unspecified) | inconclusive: 17.8 µM [inhibitor, partial curve, poor fit] | 
10 | C[C@H]1CCC[C@H](O)CCCCCc2cc(O)cc(O)c2C(=O)O1 | inconclusive: 31.6 µM [inhibitor, partial curve] | 
11 | COc1ccc(OC)c(N2C(=O)/C(=C/c3ccco3)C(=O)NC2=S)c1 | inactive | 
12 | O=C(O)C(Cc1cnc[nH]1)NS(=O)(=O)c1ccc(Cl)cc1 (stereo unspecified) | inactive | 
13 | Cc1ccc(OCCOc2cccc(C=C3C(=O)NC(=O)NC3=O)c2)c(C)c1 | inconclusive: 35.5 µM [inhibitor, single point] | 
14 | O=C(N[C@@H]1N=C(c2ccccc2F)c2cccc3c2N(CC3)C1=O)c1cc2ccccc2[nH]1 | inactive | 
15 | CCOC(=O)[C@]12Cc3cc(OC)ccc3[C@H]1N(C1CCCCC1)C(=O)c1ccccc12 | active: 4.47 µM | 
16 | CC(N)C(=O)NC1C2C(=C(O)CC(O)C2O)C(=O)OC1(C)C(Cl)Cl (stereo unspecified) | active: 1.5 µM | 
17 | CC(C)c1ccc(-n2c(O)c(/C=N/NC(=O)c3ccccc3O)c(=O)[nH]c2=S)cc1 | inactive | 
18 | CC(C)N1C(=O)/C(=C/C=C/c2ccco2)C(=O)N(Cc2ccco2)C1=O | inconclusive: 35.5 µM [inhibitor, single point] | 
19 | O=c1c2ccccc2nc(CNCc2ccco2)n1-c1ccc(F)cc1 | inactive | 
20 | CC1CC(C)CC(C)C(O)C(C#N)=CC=CCC(C2CCCC2C(=O)O)OC(=O)CC(O)C(C)C1 (stereo unspecified) | active: 0.752 µM | 
21 | Oc1cc(Cl)c(Cl)c(Cl)c1 | inconclusive: 39.8 µM [inhibitor, single point] | 
22 | O=C1NCN(c2ccccc2)C12CCN(C(c1cccs1)c1nnnn1C1CCCCC1)CC2 (stereo unspecified) | inconclusive: 39.8 µM [inhibitor, single point] | 
23 | COc1ccc(C(c2nnnn2Cc2ccccc2)N2CCC(n3c(=O)[nH]c4ccccc43)CC2)cc1 (stereo unspecified) | inconclusive: 25.1 µM [inhibitor, single point] | 
24 | Oc1cc(Cl)ccc1Oc1ccc(Cl)cc1Cl | active: 31.6 µM and active: 39.8 µM and inconclusive: 39.8 µM [inhibitor, single point] | 

Row | SMILES | Potency | activity change, negative = inhibition
25 | CCCCCCC(=O)N/N=C/c1c(O)n(CCCC)c(=S)[nH]c1=O | inconclusive: 28.2 µM [inhibitor, single point] | 
26 | COc1cc(C=C2C(=O)NC(=O)NC2=O)ccc1OCc1ccc([N+](=O)[O-])cc1 | inactive | 
27 | Cc1ccc(-c2cc(-c3ccc(C)cc3)[n+](-c3ccccc3)c(-c3ccc(C)cc3)c2)cc1 | inconclusive: 1.12 µM [inhibitor, full curve, poor fit] | 
28 | Cc1nc2c(=O)n(C)c(=O)nc-2n(C)n1 | active: 3.55 µM | 
29 | COC(=O)C1=C(c2ccc(F)cc2OCc2ccccc2)C[C@@H]2CC[C@H]1N2C(=O)NCc1ccccc1Cl | inactive | 
30 | CC(=O)OC1CC(OC2C(O)CC(OC3C(O)CC(OC4CCC5(C)C(CCC6C5CC(O)C5(C)C(C7=CC(=O)OC7)CCC65O)C4)OC3C)OC2C)OC(C)C1OC1OC(CO)C(O)C(O)C1O (stereo unspecified) | active: 0.316 µM | 
31 | O=Cc1cn(Cc2ccc(Br)cc2)c2ccccc12 | inconclusive: 14.1 µM [inhibitor, partial curve, poor fit] | 
32 | COc1ccc2[nH]c(C)c(CCNCc3cn(C)c4ccccc34)c2c1 | inconclusive: 17.8 µM [inhibitor, partial curve, poor fit] | 
33 | O=C1NC(=S)NC(=O)C1=Cc1cccn1-c1ccc(O)cc1 | active: 23.8 µM | 
34 | CC(CC(C(N)=O)(c1ccccc1)c1ccccc1)N(C)C (stereo unspecified) | inactive | 
35 | Cc1ccccc1-c1nn2c(=O)cc(CN3CCN(C(=O)COc4ccccc4Cl)CC3)nc2s1 | inconclusive: 39.8 µM [inhibitor, single point] | 
36 | COC1=C(C)C(=O)C2=C(C1=O)C(CO)N1C(C#N)C3CC4C(C1C2N1CCOC41)N3C (stereo unspecified) | inconclusive: 0.267 µM [inhibitor, full curve, poor fit] | 
37 | CC(O)(CS(=O)(=O)c1ccccc1)C(=O)Nc1ccc(C(F)(F)F)cc1 (stereo unspecified) | inactive | 
38 | C=C(c1ccccc1)P(=O)(O)O | inactive | 
39 | COc1ccc(OC)c(CC(=O)N(C)C2CCCN(Cc3ccccc3F)C2)c1 (stereo unspecified) | inactive | 
40 | CC(Cc1ccccc1Sc1ccc(O)cc1)N(C)C (stereo unspecified) | inactive | 
41 | C=CCn1c(O)c(C=NCCCn2ccnc2)c(=O)[nH]c1=O | inactive | 
42 | O=C1C(=O)c2ccccc2-c2ccccc21 | active: 2.51 µM | 
43 | CCCC(=O)Nc1ccc(N2CCN(CC)CC2)c(Cl)c1 | inactive | 
44 | C=C1C(=O)O[C@@H]2C[C@@H](C)[C@@H]3C=CC(=O)[C@@]3(C)[C@@H](OC(=O)CC(=O)O[C@H]3[C@@H]4C(=C)C(=O)O[C@@H]4C[C@@H](C)[C@@H]4C=CC(=O)[C@]43C)[C@H]12 | active: 0.316 µM | 
45 | C[N+](C)(C)CC1CCCC(C[N+](C)(C)C)C1=O (stereo unspecified) | inconclusive: 25.1 µM [inhibitor, single point] | 
46 | CCCCn1nnnc1C(c1cccc(OC)c1OC)N1CCC2(CC1)C(=O)NCN2c1ccccc1 (stereo unspecified) | inconclusive: 39.8 µM [inhibitor, single point] | 
47 | CN(C)c1ccc(C=C2C(=O)NC(=S)NC2=O)cc1 | inconclusive: 39.8 µM [inhibitor, single point] | 
48 | CCOC(=O)[C@]12Cc3cc(Cl)ccc3[C@H]1N(CC(=O)OC)C(=O)c1ccccc12 | active: 7.08 µM | 

Row | SMILES | Potency | activity change, negative = inhibition
49 | C1=C2CCCN[C@H]2[C@@H]2C[C@H]1[C@@H]1CCCCN1C2 | inactive | 
50 | CN(C)C(=S)SSC(=S)N(C)C | inconclusive: 25.1 µM [inhibitor, full curve, poor fit] | 
51 | CCOC(=O)[C@]12Cc3c(cc(OC)c(OC)c3OC)[C@H]1N(C(C)C)C(=O)c1cc(OC)ccc12 | active: 17.8 µM | 
52 | CN(C)c1ccc(CCN2CCOCC2)cc1 | inactive | 
53 | O=C1C2CCCC1C(N1CCCC1)CC2 (stereo unspecified) | inactive | 
54 | Cc1cc(C=C2C(=O)NC(=S)NC2=O)c(C)n1-c1ccc2c(c1)OCO2 | inconclusive: 39.8 µM [inhibitor, single point] | 
55 | CCC(=NCCO)c1c(O)n(-c2ccc(Cl)cc2)c(=O)[nH]c1=O | inactive | 
56 | N#CC1c2ccccc2-n2nncc2CN1S(=O)(=O)c1cc(Cl)cc(Cl)c1 (stereo unspecified) | inactive | 
57 | Cn1c(=O)c2c(nc(N/N=C/c3c(O)n(C4CCCCC4)c(=S)[nH]c3=O)n2C)n(C)c1=O | inconclusive: 8.44 µM [inhibitor, partial curve] | 
58 | CCOC(=O)[C@]12Cc3cc(C)ccc3[C@H]1N(Cc1ccccc1)C(=O)c1cc(OC)ccc12 | inconclusive: 28.2 µM [inhibitor, single point] | 
59 | CCc1ccc(N2C(=O)NC(=O)/C(=C\c3cccn3CCOc3ccc(C(C)C)cc3)C2=O)cc1 | inactive | 
60 | COC(=O)C1=C(c2cccc(OCc3ccccc3)c2)C[C@@H]2CC[C@H]1N2C(=O)NCCc1ccc(F)cc1 | inconclusive: 39.8 µM [inhibitor, single point] | 
61 | Cn1nc(-c2ccc(OCC(=O)N3CCN(Cc4ccccc4)CC3)cc2)c2ccccc2c1=O | inconclusive: 28.2 µM [inhibitor, single point] | 
62 | CCCCCCn1c(=O)c(C(=O)Nc2cnccn2)c(O)c2ccccc21 |  | inconclusive: -62.3% [inhibitor]
63 | Cc1ccc(C(=O)N[C@@H](C)CN2C3=NC[C@H](Cc4ccccc4)N3C[C@H]2Cc2ccc(O)cc2)cc1Br | active: 25.1 µM | 
64 | CNCC(O)c1cc(F)c(OCc2ccccc2)c(OCc2ccccc2)c1F (stereo unspecified) | inconclusive: 31.6 µM [inhibitor, single point] | 
65 | CC/C(=N\Nc1cccc2ccccc12)c1c(O)[nH]c(=O)[nH]c1=O | inconclusive: 28.2 µM [inhibitor, partial curve, poor fit] | 
66 | c1ccc(P(c2ccccc2)c2ccccn2)cc1 | inconclusive: 29.9 µM [inhibitor, partial curve, poor fit] | 
67 | CC(C)CCC1(CCc2ccncc2)C(=O)NC(=O)NC1=O | inactive | 
68 | O=c1[nH]c2ccccc2n1C1CCN(C(c2ccccc2OC(F)(F)F)c2nnnn2Cc2ccccc2)CC1 (stereo unspecified) | active: 17.8 µM | 
69 | Cc1cccc(C)c1-n1nnnc1C(c1cc2ccccc2o1)N1CCC(n2c(=O)[nH]c3ccccc32)CC1 (stereo unspecified) | active: 5.62 µM | 
70 | CCCCn1c(=O)c(C(=O)Nc2ncccc2C)c(O)c2ccccc21 | inactive | 
71 | CCN1CCN(Cc2ccc(C)cc2)CC1 | inactive | 
